Results as given in PMC7247549, “Biochemical Convergence of Mitochondrial Hsp70 System Specialized in Iron–Sulfur Cluster Biogenesis” (International Journal of Molecular Sciences, 2020).

Molecular target: T1, HscA (E. coli, UniProt P0A6Z1 1-616)
T1 construct: HscA, Hsp70 of E. coli specialized in FeS biogenesis; expressed from pTrcHscA; no tag is named; also called specialized bacterial Hsp70 HscA; source: E. coli DH5α with pTrcHscA, purified (Q-sepharose, Phenyl Sepharose)
T1 sequence (looked up): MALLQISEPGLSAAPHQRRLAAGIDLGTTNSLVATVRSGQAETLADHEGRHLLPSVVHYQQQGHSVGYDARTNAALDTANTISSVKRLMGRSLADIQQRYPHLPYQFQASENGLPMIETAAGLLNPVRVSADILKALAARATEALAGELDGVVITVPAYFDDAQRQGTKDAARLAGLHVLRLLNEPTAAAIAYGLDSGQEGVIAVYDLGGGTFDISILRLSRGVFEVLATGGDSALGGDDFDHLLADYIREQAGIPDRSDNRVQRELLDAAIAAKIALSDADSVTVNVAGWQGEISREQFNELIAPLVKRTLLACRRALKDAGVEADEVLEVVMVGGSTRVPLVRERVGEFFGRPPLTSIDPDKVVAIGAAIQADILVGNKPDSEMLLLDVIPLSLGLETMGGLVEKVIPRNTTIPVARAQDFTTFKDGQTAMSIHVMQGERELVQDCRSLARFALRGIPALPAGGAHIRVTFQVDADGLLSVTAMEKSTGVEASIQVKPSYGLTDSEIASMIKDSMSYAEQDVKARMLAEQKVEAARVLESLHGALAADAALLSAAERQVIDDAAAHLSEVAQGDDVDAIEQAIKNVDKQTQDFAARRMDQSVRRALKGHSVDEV
Assay: pull-down; IscU-GST at fixed concentration incubated with increasing HscA, 4 mM ATP, PD buffer, 30 min at 30 °C, then glutathione resin; SDS-PAGE, Coomassie, densitometry
Conditions: both partners purified

B1: IscU-GST (natural protein, E. coli, UniProt P0ACD4 1-128, looked up)
chain: MAYSEKVIDHYENPRNVGSFDNNDENVGSGMVGAPACGDVMKLQIKVNDEGIIEDARFKTYGCGSAIASSSLVTEWVKGKSLDEAQAIKNTDIAEELELPPVKIHCSILAEDAIKAAIADYKSKREAK
notes: IscU, FeS scaffold protein of E. coli; expressed from pET3aIscU-GST; also called IscU-GST fusion protein; source: E. coli C41(DE3) with pET3aIscU-GST, purified (glutathione agarose)
B1: binds.
